Drawing on the RNAGym collection of RNA variant scans (doi:10.1093/nar/gkz1192), this text covers self-cleavage for 167 variants.

Sequences and labels used below:
B1: CPEB3 Ribozyme (parent)
chain: UAACAGGGGGCCACAGCAGAAGCGUUCACGUCGCAGCCCCUGUCAGAUUCUGGUGAAUCUGCGAAUUCUGCUGUAUAUCUC

Read counts are not given, so values of variants with three or more changes are uncertain.

The variants in the data set derive from B1. Description: self-cleavage, relative activity (ratio to wild type); higher = more cleavage; in vitro, sequencing. In short, it runs like this:
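CPEB3 self-cleaving ribozyme mutant libraries were made by rounds of error-prone PCR, barcoded, and transcribed in vitro with T7 RNA polymerase for 5 hours at 37°C. Cleavage occurred during transcription and a 15 min DNase I step before EDTA stop. RNAs were reverse transcribed with template switching and Illumina-sequenced, with DNA sequencing mapping barcodes to variants. Relative activity is the variant's cleaved/total read fraction divided by wild type's (minimum 5 reads), averaged across three batches.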
As for A3G A13G A45G G46U U51A U80G, the self-cleavage was 0.42.
With A2U U41C U51C U69G A77G the figure was 0.57; with A3C G8A G9A U31C U67G, 0.26.
In the case of A3C A18U A20G it was 0.7; in that of A3G A5G A28U A45G, 0.32.
As to A3C U26C A47G, the self-cleavage is 0.65.
With A3G A13G G55A C62U U72A U80C the figure was 0.14; with A3C A5C A13U A18G A57G, 0.7.
On to A3G A13G A20U U54C U72G, for which the self-cleavage worked out at 0.12.
With A3G A18G U25A U66G the figure was 0.05; with A2U U41C U49C, 0.36; with A2U G55A U69A U72A, 0.2.
In the case of A2U U41A U51C U69A C79A it was 0.03; in that of A3C G9C G61U, 0.33; in that of A3G A18G C50U U74A U78C, 1.05.
In the case of A2U U25C G52C it was 0.11.
Regarding A3G A13G C27G G63A U66C U76G, the self-cleavage came out at 0.12.
Take A3G A15G A75G: the self-cleavage came to 1.11.
With A3G A15C A35U U48C A56C A57U the figure was 0.12; with A3G A15U C38U A47G U48C U69A, 0.05.
Turning to A3C U25C C50A U66C, the self-cleavage is 0.39.
With A3C C11A U25C U49C A56U A57C U76C the figure was 0.06.
With A3G A15U U76C the figure was 0.77; with A3G A5G A28G U49A, 0.52; with A3G A15G G33A U43C, 0.2.
With A3C A13U U69A the figure was 1.02.
Take A3G A18G C62U: the self-cleavage came to 0.25.
Regarding A3G A18G U58G, the self-cleavage is 0.69.
For A3G A18G U58C, the self-cleavage came to 0.44.
With A3G A18U A21G the figure was 0.36; with A3G A18U A21C, 0.28; with A3G A15U A21G G24A G73A U76C, 0.1.
With A3G A18U U26C U67C the figure was 0.18.
A3G A13U C32G U49C C59A U69A: the self-cleavage is 0.
In the case of A3G A13U G33A U43A it was 0.44; in that of A3G A18C A45U A77G, 0.25.
In the case of A2U U25C G36A A56G U60C U80A it was 0.06; in that of A3G A13U A21G, 0.76.
In the case of A3G A5U U67C U74C it was 0.2.
Turning to A3G A5U U69C, the self-cleavage was found to be 0.58.
In the case of A3G A15G A45G U54C U69C it was 0.28; in that of A3G A13G A18U U72A, 0.27.
With A3G A18U C71A the figure was 0.27.
In the case of A2U U72A C81U it was 0.39; in that of A3G A15U U31C G36U U72C, 0.28.
A3G A5G U41C U48C: the self-cleavage worked out at 0.73.
With A3C C12U G16U U41C G55A, the self-cleavage stood at 0.2.
With A3G A5G A20G A35G U78C the figure was 1.1.
In the case of A3G A5U A18G U25C U51A A65G it was 0.05; in that of A3G A15U U25A U43A U48C U58C C79U, 0.03.
With A3G A18G U58G U72A U78C the figure was 0.18; with A3G A15G A20G G33A, 0.19; with A3G A18U G33A U72C, 0.19.
Consider A3G A5U A21G C44A A64G U78C, for which the self-cleavage amounted to 0.33.
In the case of A3G A18G A47U U51A A65G U69C it was 0.16; in that of A3C G10C U76C, 0.52.
With A3G A5U A15U U58C A75C the figure was 0.91; with A3G A5U U25C G30A A56U A57G A64U, 0.15; with A3C U43A G61A, 0.92.
In the case of A3G A5G A35C U49C U67A U69C it was 0.08; in that of A3G A15U A47G U60A A75G, 0.39.
For the variant A3G A5U C17G U26C A65U, the self-cleavage is 0.29.
In the case of A3G A18G U41C U49C U66C it was 0.39; in that of A3G A18G U60A U74G, 0.34; in that of A3G A13U A15G U26A G30A U66C, 0.25.
With A3G A18G A47G U54A U67C U72C the figure was 1.12; with A3G A20G A35U U43G A56U A65G, 0.2.
For the variant A3G A5G G10C U31C, the self-cleavage is 0.88.
With A3C G8C U41C U69G U72C the figure was 0.08; with A3G A15U G24A U25G A57U U69A, 0.02; with A3G A18G A45U A64G U72C, 0.13.
With A3G A18C A20C U51C U78C the figure was 0.11; with A2U U48C U69A, 0.1.
With A3C U26A U51C G63U the figure was 1.03.
For A3C A13G U25C U43A G63A U69A A75G, the self-cleavage was found to be 0.01.
In the case of A3C A20U U41C U49A, the self-cleavage stood at 0.09.
Regarding A3G A15G A20G A21U G22C U58C, the self-cleavage came out at 0.49.
For the variant A3G A13G C59U U60A, the self-cleavage stood at 0.14.
In the case of A3C C12A U26C U54C it was 0.83; in that of A3G A5G G8U U72C, 0.22.
With A3G A15C U25C A45G the figure was 0.53; with A3C A21G U51C C71G, 0.45.
Take A3C C39U U51C A65G: the self-cleavage came out at 0.2.
In the case of A3G A18G U25C it was 0.44; in that of A3G A18U C23U U49C A65G, 0.05; in that of A3C C23U U48G A56G U69A, 0.08.
Take A3G A18C U60A: the self-cleavage is 0.28.
As for A2U U25C U78C, the self-cleavage was found to be 0.33.
In the case of A3G A13G U51A C62U A65G U67C U74C it was 0.19; in that of A3G A5G A13U C23U A28G U80C, 0.63; in that of A3G A18U U49A U76C, 0.5.
With A3G A15U A18G U25C A65G the figure was 0.1; with A3C A15G U25C U54C, 0.67.
With A3G A18G C81A the figure was 0.44.
Turning to A3C A13C A65U U80C, the self-cleavage was 0.36.
In the case of A3G A5U A21U U25C U43C U51A U69A it was 0.11.
For A3C C39U A45U, the self-cleavage came to 0.23.
With A3G A18U A20G U67A U76C the figure was 0.33.
With A3G A13U G22A U31C A75G the figure was 0.3.
For the variant A3C A15G A18U U31C A56G U80C, the self-cleavage stood at 0.09.
In the case of A3C C23U A56U U60C it was 0.34; in that of A3G A13U G19A U41A A56G A57U, 0.37; in that of A2U U31C U60C C68A, 0.1.
In the case of A3C A15G A28G U31C A45G it was 0.7; in that of A3G A15G G36C C40U G46U U67G, 0.1; in that of A3G A18U A21G C32U, 0.41.
In the case of A3C G8U G33C it was 0.31; in that of A3G A13U A21G A28U U43C U60A U78C, 0.08.
A3G A13U U31C U48C U66C: the self-cleavage is 0.07.
Consider A3G A15U A21G U67C U69C U74A A77G, for which the self-cleavage worked out at 0.05.
As to A3G A18U A20G A28U U51C U72C, the self-cleavage was 0.55.
In the case of A3C G33C C40U U41A A75U it was 0.13; in that of A3C A13G U31A U48C, 0.68.
With A3G A5U U26C U66C the figure was 0.58; with A3G A15C U51A G52U U60C, 0.96.
With A3G A13G A21G U31C C40A A64G the figure was 0.12.
Consider A2U U49A C68A U80C, for which the self-cleavage is 0.15.
A3G A18U U49C: the self-cleavage came to 0.36.
With A3G A13G U48C U49C U60C the figure was 0; with A3G A18U U67A, 0.25.
A3G A13U U25G U66C U80C: the self-cleavage turned out to be 0.08.
In the case of A3C A56G U67C it was 0.15; in that of A3C U54C U67C, 0.34; in that of A3G A18C U25G U72A, 0.28.
With A3G A5G U78C the figure was 0.64; with A2U U41G A56G U60C, 0.28; with A3G A15G A18G A57G C59A U78C, 0.06.
Consider A3G A15G U26A A45C G70A U72C, for which the self-cleavage is 0.05.
With A3C A15G U25C U76C U78A the figure was 0.09; with A3G A5G G9A A57G C62A, 0.33.
In the case of A3C U25A U31A C37U A45U U74C C81A, the self-cleavage came out at 0.05.
With A2U U41A C62A U80C the figure was 0.19; with A3G A13U G24A U41C C79G, 0.09; with A3C A21G U26A U80C, 0.92.
As to A3G A15U U43C U54A, the self-cleavage stood at 0.28.
With A3G A18G U51C A64C U76A the figure was 0.38; with A3G A15U A45G U69A, 0.37; with A3C G9C A56G G61U U69C, 0.28.
With A3G A5U U49A the figure was 0.94; with A3G A18G A35G A47G U78C, 1.17; with A3C A15G C17U A20G A47G A56U, 0.08.
In the case of A3G A15G A20U A28G U54C U60C it was 0.42; in that of A3G A13G A28G A64G U67C G70A U74A, 0.56; in that of A3G A5U U67C, 0.36.
For A3G A18C A45G, the self-cleavage was determined as 0.46.
With A3G A15G U25C G61C U67C the figure was 0.29.
In the case of A3G A5G A45U U60A U80C it was 0.83; in that of A3G A18G C40U, 0.64; in that of A3G A13G G70C U78A, 0.03.
In the case of A3G A15G U66C it was 0.56; in that of A3C U26A C27U A35G, 0.77.
As for A3G A18G A20G U25C U76A, the self-cleavage is 0.53.
A3G A15G U31A: the self-cleavage is 0.6.
With A3G A20G A47G, the self-cleavage turned out to be 0.82.
In the case of A3G A15U A45U A47G U69C A75G, the self-cleavage came to 0.21.
For A3G A5U G9A A20U A28G, the self-cleavage turned out to be 0.15.
For the variant A3G A15U G16C G33A U41A U80A, the self-cleavage stood at 0.53.
In the case of A3G A18G U54G A56G it was 0.2; in that of A3G A13G A15C U49C A64U, 0.
In the case of A3G A13G A20U A47G A56G it was 0.51; in that of A3G A15G C23U U41C A64U U69A, 0.04; in that of A3G A5G A45G G52U U67A, 0.27.
Take A3C U60C U67C U72A A77G: the self-cleavage was found to be 0.17.
In the case of A3G A18G U31G A45G A65G U66A it was 0.42; in that of A3C A5G U76C, 0.99.
With A3C A18C U25C A47G U78A, the self-cleavage came to 0.1.
With A3C G9U U48A U69C U76G the figure was 0.19.
